Experimental data reported in article PMC4336329 (PLoS ONE, 2015).
About 14,000 (4.5%) of roughly 310,000 compounds showed an effect of 50% or more. Effects have a minus sign here. Some of the results follow.

Molecular target: human ether-à-go-go-related gene (hERG) potassium channel (human, UniProt Q12809)
Assay: primary screen, population patch clamp on CHO cells stably expressing hERG
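Also: peak tail current of the secondary pulse compared with the same well before compound.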

human ether-à-go-go-related gene (hERG) potassium channel, sequence (Q12809 whole entry, looked up): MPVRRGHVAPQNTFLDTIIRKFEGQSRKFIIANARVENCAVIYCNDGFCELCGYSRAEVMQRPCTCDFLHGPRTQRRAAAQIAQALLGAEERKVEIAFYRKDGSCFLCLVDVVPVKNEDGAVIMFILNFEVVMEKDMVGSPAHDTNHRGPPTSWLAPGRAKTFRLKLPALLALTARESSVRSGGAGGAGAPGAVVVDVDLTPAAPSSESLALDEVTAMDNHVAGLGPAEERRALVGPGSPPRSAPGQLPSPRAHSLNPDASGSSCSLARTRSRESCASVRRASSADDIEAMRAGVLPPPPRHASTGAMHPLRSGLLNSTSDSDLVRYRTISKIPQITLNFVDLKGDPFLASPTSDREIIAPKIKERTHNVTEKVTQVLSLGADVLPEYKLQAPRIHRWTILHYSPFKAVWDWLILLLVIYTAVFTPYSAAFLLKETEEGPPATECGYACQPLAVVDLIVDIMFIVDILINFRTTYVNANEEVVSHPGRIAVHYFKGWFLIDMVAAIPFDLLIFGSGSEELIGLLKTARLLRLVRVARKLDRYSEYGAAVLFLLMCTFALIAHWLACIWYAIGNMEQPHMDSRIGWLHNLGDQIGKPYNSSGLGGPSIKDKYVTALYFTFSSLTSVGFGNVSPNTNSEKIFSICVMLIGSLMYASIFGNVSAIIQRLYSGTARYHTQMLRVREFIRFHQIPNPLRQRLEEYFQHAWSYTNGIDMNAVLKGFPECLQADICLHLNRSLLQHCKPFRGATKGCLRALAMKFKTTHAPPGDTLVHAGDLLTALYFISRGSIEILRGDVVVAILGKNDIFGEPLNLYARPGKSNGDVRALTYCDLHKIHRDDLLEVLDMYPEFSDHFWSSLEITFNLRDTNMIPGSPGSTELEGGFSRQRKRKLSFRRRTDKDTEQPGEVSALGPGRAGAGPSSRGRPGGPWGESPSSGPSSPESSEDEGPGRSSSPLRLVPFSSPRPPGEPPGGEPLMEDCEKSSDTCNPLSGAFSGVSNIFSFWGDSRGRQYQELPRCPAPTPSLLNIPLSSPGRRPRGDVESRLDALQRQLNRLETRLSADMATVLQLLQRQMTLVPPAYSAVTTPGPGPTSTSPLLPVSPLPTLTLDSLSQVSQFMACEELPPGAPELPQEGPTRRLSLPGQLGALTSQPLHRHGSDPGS

Going from `O=C(C1CCN(S(=O)(=O)c2ccc(Cl)cc2)CC1)N1CCCCCCC1` to `Cc1ccc(NC(=O)N2CCC(C(=O)NCCC3=CCCCC3)CC2)cc1`, the “hERG current change (%, negative = inhibition) at 10uM” value rises from -16.1% to 4.36%.

Compared with `O=C1CC(NC2CCN(C(=O)c3cccc(F)c3)CC2)C(=O)N1` (centres unmarked), `O=C(Nc1ccc(C(=O)N2CCN(c3ccccc3F)CC2)cc1)C1=CSCCO1` is lower in “hERG current change (%, negative = inhibition) at 10uM” value: 22.3% for the first, -50.3% for the second.

Going from `O=C(c1ccc(NC(=O)C2(c3ccccc3)CCOCC2)cc1)N1CCOCC1` to `O=C(Nc1nsc(-c2ccccc2)n1)c1ccc(F)cc1`, the “hERG current change (%, negative = inhibition) at 10uM” value falls from 9.8% to -24.6%.

Going from `Cc1ccc(NC(=O)N2CCCC2C(=O)Nc2c(C)cc(C)cc2C)cc1` (centres unmarked) to `O=C(NC1CCCCC1)C1CCCN1C(=O)NCc1ccccc1` (centres unmarked), the “hERG current change (%, negative = inhibition) at 10uM” value falls from -1.7% to -2.71%.

Compared with `Cc1cc(-n2c(C)cc(C(=O)CCl)c2C)no1`, `Cc1cc(C)cc(N2C(=O)c3nccnc3C2=O)c1` is higher in “hERG current change (%, negative = inhibition) at 10uM” value: -13.3% for the first, 4.26% for the second.

Compared with `Cc1nn(C(C)C(=O)N/N=C/c2ccc(N(C)C)cc2)c(C)c1[N+](=O)[O-]` (centres unmarked), `Cc1nc2cc(NC(=O)Nc3cccc([N+](=O)[O-])c3)ccc2n1C` is higher in “hERG current change (%, negative = inhibition) at 10uM” value: -13.4% for the first, 6.59% for the second.

Going from `CCOC(=O)c1sc(NC(=O)Cc2c(F)cccc2Cl)nc1C` to `CCC(=O)Nc1ccc(Cl)c(NC(=O)c2ccccc2OC)c1`, the “hERG current change (%, negative = inhibition) at 10uM” value rises from 5.72% to 13.5%.

First: Cc1ccc(C(=O)N/N=C/C2=Cc3ccccc3OC2C)cc1 (centres unmarked)
Second: O=C(N/N=C\c1ccc(Sc2ccccn2)o1)c1cccc(Br)c1
The “hERG current change (%, negative = inhibition) at 10uM” value of the first is lower: -10.4% for the first, -4.65% for the second.

First: COc1ccc(CN2C(=O)c3cccnc3C2=O)cc1S(=O)(=O)N1CCCCC1C (centres unmarked)
Second: Cc1cc2c(cc1C)N(Cc1ccccc1)C1=NCCCN12.Cl
The “hERG current change (%, negative = inhibition) at 10uM” value of the first is higher: -2.41% for the first, -72.3% for the second.

Going from `C=CCn1c(N)c(C(=O)N2CCOCC2)sc1=S` to `CCOC(=O)N1CCN(S(=O)(=O)c2cc([N+](=O)[O-])c(C)cc2C)CC1`, the “hERG current change (%, negative = inhibition) at 10uM” value falls from -0.64% to -40.5%.

Going from `Cc1ccc(C(=O)CSc2nnc(-c3cccnc3)n2N)cc1` to `Cc1ccc(S(=O)(=O)N2CCN=C2SCc2ccccc2)cc1`, the “hERG current change (%, negative = inhibition) at 10uM” value rises from -15.2% to -5.52%.

Going from `COc1ccc(CCn2c(NCCCN3CCOCC3)nc3c2c(=O)[nH]c(=O)n3C)cc1` to `CCC(=O)Nc1ccc(NC(=O)CSc2nc3c(c(=O)n(C)c(=O)n3C)n2CC)cc1`, the “hERG current change (%, negative = inhibition) at 10uM” value rises from -4.38% to -0.577%.

Compared with `O=C(NC(Cc1ccccc1)C(=O)O)OCc1ccccc1` (centres unmarked), `COc1ccc(-n2c(O)c(Cc3ccccc3)c(=O)n3nc(-c4ccccc4)c(=O)cc23)cc1` is higher in “hERG current change (%, negative = inhibition) at 10uM” value: 2.83% for the first, 5.18% for the second.

Compared with `Cc1cccc(C(=O)NCCN(C)C)c1.Cl`, `Cc1cccc(OCCC(=O)OCC(=O)N2CCc3ccccc32)c1` is higher in “hERG current change (%, negative = inhibition) at 10uM” value: 8.43% for the first, 13.4% for the second.

Going from `C=CCn1c(CNS(=O)(=O)c2ccc(Br)cc2)nnc1SC` to `O=S(=O)(Nc1ccncc1Cl)c1cc(Cl)ccc1Cl`, the “hERG current change (%, negative = inhibition) at 10uM” value rises from 0.256% to 16.6%.

First: N#CC1=C(N)OC2=C(CC/C2=C\c2ccccc2)C1c1ccccc1 (centres unmarked)
Second: O=C1c2ccccc2NC(c2ccccc2)N1c1ccc(O)cc1 (centres unmarked)
The “hERG current change (%, negative = inhibition) at 10uM” value of the first is higher: 13.9% for the first, -4.88% for the second.

Compared with `Cc1ccnc(NC(=O)CCCOc2cc(=O)n(C)c3ccccc23)c1`, `C=C1CCN([C@@H](C)C(=O)NCc2cc(OC)c(OC)c(OC)c2)S(=O)(=O)c2ccccc21` is lower in “hERG current change (%, negative = inhibition) at 10uM” value: -1.26% for the first, -1.5% for the second.

First: CC[n+]1c(/C=C2\C=C(C)CC(C)C2)sc2ccccc21.[I-] (centres unmarked)
Second: O=C(c1ccccc1Cl)N(Cc1ccc(Br)cc1)N1C(=O)CCCC1=O
The “hERG current change (%, negative = inhibition) at 10uM” value of the first is lower: 6.92% for the first, 9.41% for the second.

Going from `CC(C)N(C(=O)CSc1nnnn1C1CCCC1)C(C)C` to `O=C(c1ccco1)N1CCN(CC(=O)N(C2CCCCC2)C2CCS(=O)(=O)C2)CC1` (centres unmarked), the “hERG current change (%, negative = inhibition) at 10uM” value rises from -12.9% to 16.2%.

Going from `Cc1cc(C)nc(SCC(=O)OCC(=O)N(C)c2c(N)n(Cc3ccccc3)c(=O)[nH]c2=O)n1` to `Cn1cnc(NCc2ccccc2)c1[N+](=O)[O-]`, the “hERG current change (%, negative = inhibition) at 10uM” value falls from 12.4% to 10.1%.

Going from `O=C(Cc1cccs1)N/N=C/c1ccco1` to `O=C(/C=C/c1ccc([N+](=O)[O-])cc1)NC1CC2CCC1C2` (centres unmarked), the “hERG current change (%, negative = inhibition) at 10uM” value falls from 9.04% to -67.8%.

Going from `Nc1cc(C(=O)N2CCN(c3ccc([N+](=O)[O-])cc3)CC2)ccc1N1CC2CC(C1)c1cccc(=O)n1C2` (centres unmarked) to `Cc1nn(C(C)C)c(C)c1CN1CCN(Cc2ccsc2)C(CCO)C1` (centres unmarked), the “hERG current change (%, negative = inhibition) at 10uM” value rises from -35.3% to 0.518%.
